# From PMC6919601, “Identification of Plasmodium dipeptidyl aminopeptidase allosteric inhibitors by high throughput screening” (PLoS ONE, 2019)
# Among all 110,000 compounds or so, about 230 (0.21%) showed an effect of 50% or more. The list shows a part of the results.
# Target: DPAP1 (Plasmodium falciparum, UniProt Q8IIJ9)
# Assay: primary screen, percent inhibition; read by cleavage of a fluorogenic dipeptide substrate; higher = more effect of the substance
# Design: species or system P. falciparum D10 trophozoite lysates; single well
# 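Note: 30 min substrate incubation versus DMSO and 10 µM JCP410 controls.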
# Chain of DPAP1 (Q8IIJ9 whole entry, looked up): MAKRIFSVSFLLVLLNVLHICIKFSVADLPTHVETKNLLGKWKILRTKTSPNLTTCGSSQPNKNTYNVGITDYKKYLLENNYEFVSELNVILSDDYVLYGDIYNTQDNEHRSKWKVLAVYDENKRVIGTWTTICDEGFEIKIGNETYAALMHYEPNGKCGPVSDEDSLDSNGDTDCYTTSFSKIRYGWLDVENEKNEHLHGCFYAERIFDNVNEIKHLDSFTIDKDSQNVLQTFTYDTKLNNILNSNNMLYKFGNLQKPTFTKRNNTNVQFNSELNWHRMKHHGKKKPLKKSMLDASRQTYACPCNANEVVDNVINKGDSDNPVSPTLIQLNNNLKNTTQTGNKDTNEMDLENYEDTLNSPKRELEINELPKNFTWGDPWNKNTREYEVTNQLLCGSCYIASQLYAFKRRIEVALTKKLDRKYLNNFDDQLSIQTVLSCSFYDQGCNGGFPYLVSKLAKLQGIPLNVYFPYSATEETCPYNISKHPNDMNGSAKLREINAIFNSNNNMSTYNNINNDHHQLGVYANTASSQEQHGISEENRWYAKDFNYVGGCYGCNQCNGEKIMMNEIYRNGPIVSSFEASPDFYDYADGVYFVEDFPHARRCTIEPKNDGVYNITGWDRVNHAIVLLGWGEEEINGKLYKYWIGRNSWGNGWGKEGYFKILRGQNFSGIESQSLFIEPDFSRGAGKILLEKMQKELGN
row,SMILES,% Inhibition @ 10 uM
1,COc1ccccc1C(=O)Nc1cccc(O)c1,-7.08%
2,CN(CCNC(=O)c1ccc(CS(=O)(=O)c2c(Cl)cccc2Cl)o1)CCc1ccccc1,-4.71%
3,CC(=O)NCCNc1nc2c(S(=O)(=O)c3ccccc3)nnn2c2ccc(Cl)cc12,0.291%
4,C=C(C)CC(C(=O)NCC#N)c1csc(-c2ccccc2)n1 (centres unmarked),-4.72%
5,CC(C(=O)N1CCN(c2ccc(F)cc2)CC1)N1C(=O)c2ccccc2C1=O (centres unmarked),-3.41%
6,CC[n+]1cccc(C(=O)N2c3c(O)nc(NC(=O)C(C)C)nc3NC(C)C2C)c1 (centres unmarked),-6.62%
7,O=c1c2c(F)c(F)c(F)c(F)c2on2c3c(nc12)CCCC3,3.36%
8,Cc1ccsc1/C=C1\Cc2ccccc2C1=O,1.07%
9,CN(C)c1ccnc(Sc2ccccc2)c1C#N,-2.37%
10,COc1cc(/C=C(\C#N)c2nc3cc(C)ccc3[nH]2)cc(Br)c1OC,18.2%
11,CC1=CC2=NC(=O)/C(=C\c3ccc(OCCOc4ccc(C)cc4C)cc3)C(=N)N2O1,-1.43%
12,CCOc1ccc(C2C3=C(O)CCCC3=NC(C)=C2C(=O)Nc2cccc(C)n2)cc1 (centres unmarked),-2.87%
13,COc1ccc(C(=O)Nc2sc3c(c2C(N)=O)CCCCCC3)cc1OC,11.2%
14,Cc1cc(C)n(CCCNC(=O)c2cc(F)c(F)cc2Cl)n1,-2.19%
15,Cc1cccc(N2CCN(C(=O)c3ccc(Br)o3)CC2)c1C,-0.67%
16,Cc1noc(C)c1CCNc1ncnc2onc(-c3ccc(Cl)cc3)c12,-7.33%
17,COc1cc2c(cc1OC)C(COc1cc(C)cc(C)c1)N(C(=O)C(C)C)CC2 (centres unmarked),7.48%
18,CC(C)(C)OC(=O)N1CC2=C(OC(N)=C(C#N)C2c2ccc(F)cc2)/C(=C/c2ccc(F)cc2)C1 (centres unmarked),-3.26%
19,O=C(NCCC1=CCCCC1)C1CCCN(S(=O)(=O)N2CCOCC2)C1 (centres unmarked),-7.53%
20,CO/C(O)=C1\C(C)=NC2=C(C(=O)CC(c3ccccc3)C2)C1c1ccc(O)c(OC)c1 (centres unmarked),-1.03%
21,COc1ccc(C2C(C#N)=C(N)OC3=C2C(=O)CCC3)cc1COc1ccc(F)cc1F (centres unmarked),0.673%

row,SMILES,% Inhibition @ 10 uM
1,CS(=O)(=O)N(CC(=O)NCc1ccccc1Cl)Cc1ccccc1,-8.92%
2,COc1ccc(CNCc2ccc3c(c2)OCO3)cc1,-5.44%
3,CN1CCC(N(C)Cc2cccc(Cl)c2Cl)CC1,1.63%
4,Fc1ccc(N2CCN(Cc3ccc(F)c(Br)c3)CC2)cc1,-1.77%
5,Cc1nn(C(=O)c2ccc(Cl)cc2Cl)c(N)c1-c1ccccc1,-4.35%
6,C=CCN1C(=O)S/C(=C/c2ccc(OC(C)C)cc2)C1=O,0.83%
7,Cc1cc2c(c(=O)n1Cc1cccnc1)C(c1ccoc1)C(C#N)=C(N)O2 (centres unmarked),2.01%
8,CCc1cc2c(cc3c(=O)n(CC(=O)N4CCN(Cc5ccccc5)CC4)ncn32)s1,1.68%
9,O/C(=C\c1nc2ccccc2nc1O)c1cccs1,0.562%
10,CCCCC1=C(O)C2N=CC=CC2=[N+](c2ccccn2)C1=O (centres unmarked),0.674%
11,CC1CC(C)CN(C(=O)CCNS(=O)(=O)c2ccc3nc(O)ccc3c2)C1 (centres unmarked),7.52%
12,CCOC(=O)c1c(NC(=O)CNCc2ccccc2)sc(C)c1C,-8.11%
13,O=C(CSCCc1ccccn1)Nc1ccccn1,-1.46%
14,CSc1nn(-c2cc(Oc3cccc(C)c3)ncn2)c(N)c1C#N,4%
15,CCN(CC)S(=O)(=O)c1ccc(Cl)c(C(=O)O)c1,7.33%
16,COc1ccccc1-c1cc(C(=O)N[C@@H](CC(C)C)C(=O)NCC#N)sc1-c1ccccc1OC,-6.46%
17,CC(=O)Nc1nonc1N1C(=N)S/C(=C\c2ccc(-c3ccc(F)c(Cl)c3)o2)C1=O,1.83%
18,CC1CC(C)CN(Cc2nc3c(c(=O)n(C)c(=O)n3C)n2CCCO)C1 (centres unmarked),-5.1%
19,CC(C)CNC(=O)CN(c1ccc(F)cc1)S(=O)(=O)c1ccccc1,-3.92%
20,CC1=C(C(=O)Nc2ccc(C)cc2)C(c2ccc3c4c(cccc24)CC3)NC(=O)N1C (centres unmarked),1.92%
21,COc1cccc(C2c3c(oc4cc(C)c(C)cc4c3=O)C(=O)N2CCCN2CCOCC2)c1 (centres unmarked),-2.91%

row,SMILES,% Inhibition @ 10 uM
1,CCCN(Cc1cccc(O)c1)CC1CC1,-2.02%
2,Brc1ccccc1CN1CCc2c([nH]c3ccccc23)C1,-1.38%
3,O=C(C1=C(O)C(=O)N(CCc2ccccc2)C1c1ccccc1F)c1ccccc1 (centres unmarked),3.35%
4,COc1nc2c(C)cccc2cc1-c1noc(C(C)C)n1,4.18%
5,O=C(CSc1cn(CC(=O)N2CCCC2)c2ccccc12)NCc1ccccc1,3.77%
6,CC(C)OCCCNC(=O)Cn1c(=O)c2cccn2c2cccnc21,-1.81%
7,Cc1cccc(CNC(=O)CN2C(=O)CSc3ncccc32)c1,3.3%
8,COc1cccc(S(=O)(=O)NCc2ccc(C(=O)Nc3ccc4sc(C)nc4c3)cc2)c1,5.15%
9,COCCNC(=O)c1ccc(CNS(=O)(=O)c2ccc(C(C)(C)C)cc2)cc1,-0.256%
10,COc1c(Br)cc2c(C)c(C(=O)O)oc2c1Br,0.716%
11,O/C(=C\C1=NCC(c2ccccc2)O1)c1ccc(Br)cc1 (centres unmarked),-0.864%
12,Cc1ccn2c(NC(=O)c3cc4ccccc4oc3=O)c(-c3ccccc3)nc2c1,-3.02%
13,Cc1ccc(NC(=O)Nc2ccc(F)cc2)nc1,-0.99%
14,O=C(C1CCCCC1)n1cnc2ccccc21,14.9%
15,Cc1ccc(NC(=O)/C=C/c2ccc3c(c2)OCO3)cc1,-2.12%
16,Cc1ccc(C(=N)NOC(=O)COc2ccc(C)c(C)c2)cc1,1.96%
17,Cc1ccc2[nH]c(SCC(=O)Nc3ccccc3F)nc2c1,0.5%
18,COc1cc(C2C(C#N)=C(N)Oc3cc(C)n(Cc4ccccc4)c(=O)c32)cc(OC)c1OC (centres unmarked),-5.48%
19,CCOC(=O)C1=C(CS(=O)(=O)c2ccc(C)c(C)c2)NC(=O)NC1c1ccc(OC)c(OC)c1 (centres unmarked),-2.16%
20,Cc1oc(-c2ccc(Cl)cc2)nc1CSCC(=O)NC1CCCCCC1,2.37%
